# Source: the supplement of paper PMC8728848
# This is one part of the list.
# Experiments:
# Assay in all cases: glycan array binding signal (z-score within array); higher = stronger binding
# Settings in all cases: glycan notation: IUPAC condensed, linker removed
# [1] = target: Man(a1-3)[Man(a1-6)]Man(a1-6)[Man(a1-3)]Man
# How it was run: (§1)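 From the Consortium for Functional Glycomics database, 3228 arrays were curated, keeping only those whose protein sequence was available. Binding is given as a within-array Z-score averaged across arrays sharing a protein sequence and across linkers. Negative Z-scores can be read as non-binding.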
# [2] = target: Man(a1-3)[Man(a1-6)]Man(a1-6)[Man(a1-3)]Man(b1-4)GlcNAc(b1-4)GlcNAc
# How it was run: as §1
# [3] = target: Man(a1-3)[Man(a1-6)]Man(b1-4)GlcNAc(b1-4)GlcNAc
# How it was run: as §1
# Man(a1-6)Man = target: Man(a1-6)Man
# How it was run: as §1
# Man(b1-4)GlcNAc = target: Man(b1-4)GlcNAc
# How it was run: as §1
# Neu5Ac(a2-3)Gal = target: Neu5Ac(a2-3)Gal
# How it was run: as §1
# [4] = target: Neu5Ac(a2-3)Gal(b1-3)GalNAc
# How it was run: as §1
# [5] = target: Neu5Ac(a2-3)Gal(b1-3)GalNAc(b1-3)Gal(a1-4)Gal(b1-4)Glc
# How it was run: as §1
# [6] = target: Neu5Ac(a2-3)Gal(b1-3)GalNAc(b1-3)Gal(b1-4)GlcNAc
# How it was run: as §1
# [7] = target: Neu5Ac(a2-3)Gal(b1-3)GalNAc(b1-4)[Neu5Ac(a2-3)]Gal(b1-4)Glc
# How it was run: as §1
# [8] = target: Neu5Ac(a2-3)Gal(b1-3)GalNAc6S
# How it was run: as §1
# [9] = target: Neu5Ac(a2-3)Gal(b1-3)GlcNAc
# How it was run: as §1
# [10] = target: Neu5Ac(a2-3)Gal(b1-3)GlcNAc(b1-3)Gal(b1-3)GlcNAc
# How it was run: as §1
# [11] = target: Neu5Ac(a2-3)Gal(b1-3)GlcNAc6S
# How it was run: as §1
# [12] = target: Neu5Ac(a2-3)Gal(b1-3)[Fuc(a1-4)]GlcNAc
# How it was run: as §1
# [13] = target: Neu5Ac(a2-3)Gal(b1-3)[Fuc(a1-4)]GlcNAc(b1-3)Gal(b1-4)[Fuc(a1-3)]GlcNAc
# How it was run: as §1
# [14] = target: Neu5Ac(a2-3)Gal(b1-3)[Neu5Ac(a2-3)Gal(b1-4)]GlcNAc
# How it was run: as §1
# [15] = target: Neu5Ac(a2-3)Gal(b1-3)[Neu5Ac(a2-6)]GalNAc
# How it was run: as §1
# Neu5Ac(a2-3)Gal(b1-4)Glc = target: Neu5Ac(a2-3)Gal(b1-4)Glc
# How it was run: as §1
# [16] = target: Neu5Ac(a2-3)Gal(b1-4)GlcNAc
# How it was run: as §1
# [17] = target: Neu5Ac(a2-3)Gal(b1-4)GlcNAc(b1-2)Man(a1-3)[GlcNAc(b1-2)Man(b1-4)GlcNAc(b1-2)Man(a1-6)]Man(b1-4)GlcNAc(b1-4)GlcNAc
# How it was run: as §1
# [18] = target: Neu5Ac(a2-3)Gal(b1-4)GlcNAc(b1-2)Man(a1-3)[Neu5Ac(a2-6)Gal(b1-4)GlcNAc(b1-2)Man(a1-6)]Man(b1-4)GlcNAc(b1-4)GlcNAc
# How it was run: as §1
# [19] = target: Neu5Ac(a2-3)Gal(b1-4)GlcNAc(b1-3)Gal(b1-3)GlcNAc
# How it was run: as §1
# [20] = target: Neu5Ac(a2-3)Gal(b1-4)GlcNAc(b1-3)Gal(b1-4)GlcNAc
# How it was run: as §1
# [21] = target: Neu5Ac(a2-3)Gal(b1-4)GlcNAc(b1-3)Gal(b1-4)GlcNAc(b1-3)Gal(b1-4)GlcNAc
# How it was run: as §1
# [22] = target: Neu5Ac(a2-3)Gal(b1-4)GlcNAc(b1-3)Gal(b1-4)[Fuc(a1-3)]GlcNAc
# How it was run: as §1
# [23] = target: Neu5Ac(a2-3)Gal(b1-4)GlcNAc(b1-6)[Gal(b1-3)]GalNAc
# How it was run: as §1
# [24] = target: Neu5Ac(a2-3)Gal(b1-4)GlcNAc(b1-6)[Neu5Ac(a2-3)Gal(b1-3)]GalNAc
# How it was run: as §1
# [25] = target: Neu5Ac(a2-3)Gal(b1-4)GlcNAc6S
# How it was run: as §1
# [26] = target: Neu5Ac(a2-3)Gal(b1-4)[Fuc(a1-3)]GlcNAc
# How it was run: as §1
# [27] = target: Neu5Ac(a2-3)Gal(b1-4)[Fuc(a1-3)]GlcNAc(b1-3)Gal
# How it was run: as §1
# [28] = target: Neu5Ac(a2-3)Gal(b1-4)[Fuc(a1-3)]GlcNAc(b1-3)Gal(b1-4)GlcNAc
# How it was run: as §1
# [29] = target: Neu5Ac(a2-3)Gal(b1-4)[Fuc(a1-3)]GlcNAc(b1-3)Gal(b1-4)[Fuc(a1-3)]GlcNAc(b1-3)Gal(b1-4)[Fuc(a1-3)]GlcNAc
# How it was run: as §1
# [30] = target: Neu5Ac(a2-3)Gal(b1-4)[Fuc(a1-3)]GlcNAc(b1-6)[Gal(b1-3)]GalNAc
# How it was run: as §1
# [31] = target: Neu5Ac(a2-3)Gal(b1-4)[Fuc(a1-3)]GlcNAc6S
# How it was run: as §1
# [32] = target: Neu5Ac(a2-3)Gal6S(b1-4)GlcNAc
# How it was run: as §1
# [33] = target: Neu5Ac(a2-3)Gal6S(b1-4)[Fuc(a1-3)]GlcNAc
# How it was run: as §1
# Neu5Ac(a2-3)GalNAc = target: Neu5Ac(a2-3)GalNAc
# How it was run: as §1
# [34] = target: Neu5Ac(a2-3)GalNAc(b1-4)GlcNAc
# How it was run: as §1
# [35] = target: Neu5Ac(a2-3)[GalNAc(b1-4)]Gal(b1-4)Glc
# How it was run: as §1
# [36] = target: Neu5Ac(a2-3)[GalNAc(b1-4)]Gal(b1-4)GlcNAc
# How it was run: as §1
# [37] = target: Neu5Ac(a2-3)[Neu5Ac(a2-6)]GalNAc
# How it was run: as §1
# Neu5Ac(a2-6)Gal = target: Neu5Ac(a2-6)Gal
# How it was run: as §1
# Neu5Ac(a2-6)Gal(b1-4)Glc = target: Neu5Ac(a2-6)Gal(b1-4)Glc
# How it was run: as §1
# [38] = target: Neu5Ac(a2-6)Gal(b1-4)GlcNAc
# How it was run: as §1
binder,measurement,setting,value
"P-Selectin (Homo sapiens), P16109 (protein) MANCQIAILYQRFQRVVFGISQLLCFSALISELTNQKEVAAWTYHYSTKAYSWNISRKYCQNRYTDLVAIQNKNEIDYLNKVLPYYSSYYWIGIRKNNKTWTWVGTKKALTNEAENWADNEPNNKRNNEDCVEIYIKSPSAPGKWNDEHCLKKKHALCYTASCQDMSCSKQGECLETIGNYTCSCYPGFYGPECEYVRECGELELPQHVLMNCSHPLGNFSFNSQCSFHCTDGYQVNGPSKLECLASGIWTNKPPQCLAAQCPPLKIPERGNMTCLHSAKAFQHQSSCSFSCEEGFALVGPEVVQCTASGVWTAPAPVCKAVQCQHLEAPSEGTMDCVHPLTAFAYGSSCKFECQPGYRVRGLDMLRCIDSGHWSAPLPTCEAISCEPLESPVHGSMDCSPSLRAFQYDTNCSFRCAEGFMLRGADIVRCDNLGQWTAPAPVCQALQCQDLPVPNEARVNCSHPFGAFRYQSVCSFTCNEGLLLVGASVLQCLATGNWNSVPPECQAIPCTPLLSPQNGTMTCVQPLGSSSYKSTCQFICDEGYSLSGPERLDCTRSGRWTDSPPMCEAIKCPELFAPEQGSLDCSDTRGEFNVGSTCHFSCDNGFKLEGPNNVECTTSGRWSATPPTCKGIASLPTPGLQCPALTTPGQGTMYCRHHPGTFGFNTTCYFGCNAGFTLIGDSTLSCRPSGQWTAVTPACRAVKCSELHVNKPIAMNCSNLWGNFSYGSICSFHCLEGQLLNGSAQTACQENGHWSTTVPTCQAGPLTIQEASTSITAYKSEGESAEFSFPLNLGEESLQGELRWKAEKAPSSQSWITFSLKNQKVSVQKSTSNPKFQLSETLPLTLQIPQVSLQFAGSGNLTLTLDRGILYQEVNLVVMKVTQPDSNTLTCEVMGPTSPKMRLILKQENQEARVSRQEKVIQVQAPEAGVWQCLLSEGEEVKMDSKIQVLSKGLNSGGGSGGGTGGGDLAPQMLRELQETNAALQDVRELLRQQVKEITFLKNTVMECDACGLDRNLPPLAPLGPHPETLVKVKDAEDQLGARVGYIELDLNSGKILESFRPEERFPMMSTFKVLLCGAVLSRIDAGQEQLGRRIHYSQNDLVEYSPVTEKHLTDGMTVRELCSAAITMSDNTAANLLLTTIGGPKELTAFLHNMGDHVTRLDRWEPELNEAIPNDERDTTMPVAMATTLRKLLTGELLTLASRQQLIDWMEADKVAGPLLRSALPAGWFIADKSGAGERGSRGIIAALGPDGKPSRIVVIYTTGSQATMDERNRQIAEIGASLIKHWGPDYKDHDGDYKDHDIDYKDDDDKGPHHHHHH",glycan array binding signal (z-score),[1],-0.205
same,glycan array binding signal (z-score),[2],-0.052
same,glycan array binding signal (z-score),[3],0.332
same,glycan array binding signal (z-score),Man(a1-6)Man,-0.32
same,glycan array binding signal (z-score),Man(b1-4)GlcNAc,-0.214
same,glycan array binding signal (z-score),Neu5Ac(a2-3)Gal,-0.169
same,glycan array binding signal (z-score),[4],-0.268
same,glycan array binding signal (z-score),[5],-0.258
same,glycan array binding signal (z-score),[6],-0.166
same,glycan array binding signal (z-score),[7],-0.144
same,glycan array binding signal (z-score),[8],0.282
same,glycan array binding signal (z-score),[9],-0.331
same,glycan array binding signal (z-score),[10],-0.128
same,glycan array binding signal (z-score),[11],0.215
same,glycan array binding signal (z-score),[12],6.36
same,glycan array binding signal (z-score),[13],3.52
same,glycan array binding signal (z-score),[14],-0.296
same,glycan array binding signal (z-score),[15],0.025
same,glycan array binding signal (z-score),Neu5Ac(a2-3)Gal(b1-4)Glc,-0.135
same,glycan array binding signal (z-score),[16],-0.207
same,glycan array binding signal (z-score),[17],0.061
same,glycan array binding signal (z-score),[18],-0.191
same,glycan array binding signal (z-score),[19],-0.141
same,glycan array binding signal (z-score),[20],-0.33
same,glycan array binding signal (z-score),[21],-0.133
same,glycan array binding signal (z-score),[22],-0.01
same,glycan array binding signal (z-score),[23],-0.229
same,glycan array binding signal (z-score),[24],-0.276
same,glycan array binding signal (z-score),[25],-0.077
same,glycan array binding signal (z-score),[26],0.764
same,glycan array binding signal (z-score),[27],0.083
same,glycan array binding signal (z-score),[28],0.064
same,glycan array binding signal (z-score),[29],-0.238
same,glycan array binding signal (z-score),[30],0.071
same,glycan array binding signal (z-score),[31],9.93
same,glycan array binding signal (z-score),[32],-0.06
same,glycan array binding signal (z-score),[33],0.141
same,glycan array binding signal (z-score),Neu5Ac(a2-3)GalNAc,-0.249
same,glycan array binding signal (z-score),[34],-0.176
same,glycan array binding signal (z-score),[35],-0.07
same,glycan array binding signal (z-score),[36],-0.19
same,glycan array binding signal (z-score),[37],-0.109
same,glycan array binding signal (z-score),Neu5Ac(a2-6)Gal,1.08
same,glycan array binding signal (z-score),Neu5Ac(a2-6)Gal(b1-4)Glc,-0.122
same,glycan array binding signal (z-score),[38],-0.288
